# Reference: the supplement of paper PMC3724861
# The other results are listed elsewhere or left out.
# System: T1, Caupolican (Caup) homeodomain DNA-binding domain
# T1 sequence: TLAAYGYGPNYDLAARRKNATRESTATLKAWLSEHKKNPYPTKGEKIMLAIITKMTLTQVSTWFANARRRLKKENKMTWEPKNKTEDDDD
# Test: PBM E-score (8-mer, recovered from the published 9-mer minima) (E-score (dimensionless, -0.5 to 0.5)); Drosophila protein; higher = stronger relative binding preference, active = 0.31 or more
# Method in brief: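 Caup's homeodomain DNA-binding domain (residues 214-303) was made by in vitro transcription and translation and applied at 100 nM to custom-designed protein binding microarrays. Each value is an enrichment score that gives relative binding preference for a short DNA word, with higher meaning stronger. The 8-mer values were recovered from published 9-mer scores, each of which was the minimum of its two constituent 8-mer scores. A cutoff of 0.31 marks candidate sites.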
row,Sequence,PBM E-score
1,CACATATG,inactive: 0.15
2,ATGTGTCA,inactive: 0.297
3,AACCCTGC,inactive: -0.184
4,GATTTATA,inactive: 0.114
5,CGGGCTGC,inactive: -0.247
6,CTGGCTAC,inactive: -0.0495
7,AGTGGATA,inactive: 0.0671
8,TCCGATAA,inactive: 0.0136
9,ACTATTGA,inactive: 0.13
10,GAGTATGA,inactive: 0.0775
11,AGCACATC,inactive: 0.0585
12,AGATTCGG,inactive: -0.0104
13,TGCACTAA,inactive: 0.0967
14,CGGGGGAG,inactive: -0.333
15,ATCGCTTA,inactive: 0.0356
16,GACGGATA,inactive: -0.0023
17,AGCCCCTC,inactive: -0.283
18,CCCAAAAC,inactive: 0.0461
19,CACTAGTG,inactive: 0.0587
20,CATTATGA,inactive: 0.088
21,GTCGTTAA,inactive: 0.0842
22,CAAGGATA,inactive: 0.0429
23,ACCACTTG,inactive: 0.0923
24,CACGGTAG,inactive: -0.00333

row,Sequence,PBM E-score
1,CCCCTACG,inactive: -0.256
2,CGCACTAC,inactive: -0.021
3,CCAGCTTC,inactive: -0.128
4,GGCGAAGA,inactive: -0.162
5,CTGAATAA,inactive: 0.0803
6,TAATTATA,inactive: 0.234
7,AGACGGGG,inactive: -0.292
8,CCGTGTAC,active: 0.411
9,CAGTACTA,inactive: 0.183
10,ATAACCCC,inactive: -0.0574
11,ACTCTCCC,inactive: -0.139
12,AATAGACT,inactive: 0.0817
13,ATCGGGGC,inactive: -0.202
14,ACCAAGGA,inactive: 0.00106
15,AAGCGCGA,inactive: -0.033
16,GACATAGC,inactive: 0.254
17,ATCGCACG,inactive: -0.0229
18,TCGGCAAA,inactive: -0.0466
19,GAGCGATC,inactive: -0.0393
20,CTTCCATC,inactive: -0.159
21,ATCAGTTG,inactive: 0.218
22,CGACCAGA,inactive: 0.0428
23,GATCTTGC,inactive: -0.00744
24,CTAATAGA,inactive: 0.0917

row,Sequence,PBM E-score
1,GCCGCGAA,inactive: -0.267
2,ATATAGTA,inactive: 0.181
3,CATCCCCC,inactive: -0.251
4,CGTCCGAC,inactive: -0.0861
5,GGAACGAC,inactive: 0.0391
6,GACGAAGC,inactive: -0.0968
7,CTCATAAG,inactive: 0.0492
8,TCTGCGCA,≥ -0.0554
9,AGAGGTAC,inactive: 0.0429
10,CGAAATAG,inactive: -0.00544
11,CTCGAAGC,inactive: -0.192
12,ACAAGACC,inactive: 0.173
13,ACCAGGAG,inactive: -0.174
14,GTCGTGGA,inactive: -0.0165
15,CCTATATC,inactive: 0.0204
16,AATTCCTC,inactive: -0.0138
17,ACTTGAGC,inactive: -0.086
18,GATTTTAC,inactive: 0.156
19,ACATGAGT,inactive: 0.305
20,GAGAAAGA,inactive: -0.0597
21,TCTAGGAA,inactive: -0.0135
22,CGTTAACC,inactive: 0.0249
23,AATATTAT,inactive: 0.223
24,CGAAAACC,inactive: 0.00237

row,Sequence,PBM E-score
1,AGCCATCA,inactive: -0.00784
2,GACTGAAA,inactive: 0.00625
3,AGGCCCTA,inactive: -0.104
4,AGATACTA,inactive: 0.12
5,CAGGTAGG,inactive: -0.0492
6,CACTTGGA,inactive: 0.0572
7,AGAGTCAC,inactive: -0.0337
8,ACATTCGG,inactive: 0.173
9,GAACAGCC,inactive: -0.0666
10,CTCCCTCC,inactive: -0.268
11,CAACTGCG,inactive: -0.039
12,AACCATAC,inactive: 0.101
13,TGACTACA,inactive: 0.269
14,CACTACGC,inactive: -0.14
15,ATCCAGGA,≥ 0.0324
16,GAGCAAAA,inactive: -0.0468
17,AATCTTAG,inactive: -0.0734
18,AGTGTTAT,inactive: 0.206
19,ATTTGCGC,inactive: -0.0699
20,GATCCCAC,inactive: -0.0457
21,GTAGATGA,inactive: 0.0909
22,GGCGAAAC,inactive: -0.0989
23,TGGATCCA,inactive: -0.022
24,CTGCCATA,inactive: -0.0522

row,Sequence,PBM E-score
1,AGCGCTAC,inactive: -0.0476
2,AAAGAGGG,inactive: -0.126
3,TAACCATA,inactive: 0.0949
4,AATCTAAC,inactive: 0.103
5,AATATTGT,inactive: 0.264
6,GCGTTTGA,inactive: -0.0785
7,AGCATATC,inactive: 0.138
8,ATGATCCA,inactive: 0.00317
9,CCCATCTA,inactive: -0.0927
10,ACACCATA,inactive: 0.228
11,ACTACGTA,inactive: 0.0515
12,CCCAACTA,inactive: 0.0333
13,CCCGAGAG,inactive: -0.252
14,CTACGTGA,inactive: -0.0162
15,GCGGGCAA,inactive: -0.0686
16,ATAGCTGC,inactive: 0.0345
17,AATTCGCC,inactive: -0.0305
18,CATTCGTC,inactive: 0.0539
19,GGTTGGCA,inactive: -0.0694
20,CTAAGTCA,inactive: 0.00292
21,ACTTAGTA,inactive: 0.15
22,ACATCGGG,inactive: 0.00988
23,GAACCTAC,inactive: 0.0316
24,ACTTACAG,inactive: 0.187

row,Sequence,PBM E-score
1,CGCGGTCA,inactive: -0.176
2,GTACTAGA,inactive: 0.285
3,AAGCCTGA,inactive: -0.152
4,CTTGCAAC,inactive: 0.155
5,AAAATCCC,inactive: 0.00404
6,GCTGACAA,inactive: 0.217
7,ATCAACGC,inactive: 0.0719
8,GGTGCCCA,inactive: -0.169
9,AGTACGTG,inactive: 0.0988
10,ATACAGAG,inactive: 0.0668
11,GCCGCAAC,inactive: -0.0978
12,CCAGCTAG,inactive: 0.00105
13,CTCAGGCA,inactive: -0.141
14,AGAAGAAG,inactive: -0.132
15,CTGGTCCA,inactive: 0.0298
16,ATACCGCA,inactive: 0.0209
17,GATAGCGA,inactive: 0.0517
18,CCTGTGCC,inactive: -0.18
19,GTTGGCGA,inactive: -0.104
20,CCGGATCA,inactive: 0.0365
21,CCGATGCA,inactive: -0.0775
